Test results taken from the supplement of paper PMC8728848.
The list shows a part of the results.

Tests used:
Experiment in all cases: glycan array binding signal (z-score within array); higher = stronger binding
Conditions in all cases: glycan notation: IUPAC condensed, linker removed
[1] = target: Neu5Ac(a2-3)Gal(b1-4)GlcNAc
How it was run: (§1)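 Glycan array binding is given as a within-array Z-score, which can be read as non-binding when negative. The arrays, 3228 of them, came from the Consortium for Functional Glycomics database and were retained only where the protein sequence was available. Z-scores were averaged across arrays of the same protein sequence at different concentrations or buffers and across linkers.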

[2] = target: Neu5Ac(a2-3)Gal(b1-4)GlcNAc(b1-2)Man(a1-3)[GlcNAc(b1-2)Man(b1-4)GlcNAc(b1-2)Man(a1-6)]Man(b1-4)GlcNAc(b1-4)GlcNAc
How it was run: as §1

[3] = target: Neu5Ac(a2-3)Gal(b1-4)GlcNAc(b1-2)Man(a1-3)[Neu5Ac(a2-6)Gal(b1-4)GlcNAc(b1-2)Man(a1-6)]Man(b1-4)GlcNAc(b1-4)GlcNAc
How it was run: as §1

[4] = target: Neu5Ac(a2-3)Gal(b1-4)GlcNAc(b1-3)Gal(b1-3)GlcNAc
How it was run: as §1

[5] = target: Neu5Ac(a2-3)Gal(b1-4)GlcNAc(b1-3)Gal(b1-4)GlcNAc
How it was run: as §1

[6] = target: Neu5Ac(a2-3)Gal(b1-4)GlcNAc(b1-3)Gal(b1-4)GlcNAc(b1-3)Gal(b1-4)GlcNAc
How it was run: as §1

[7] = target: Neu5Ac(a2-3)Gal(b1-4)GlcNAc(b1-3)Gal(b1-4)[Fuc(a1-3)]GlcNAc
How it was run: as §1

[8] = target: Neu5Ac(a2-3)Gal(b1-4)GlcNAc(b1-3)GalNAc
How it was run: as §1

[9] = target: Neu5Ac(a2-3)Gal(b1-4)GlcNAc(b1-6)[Gal(b1-3)]GalNAc
How it was run: as §1

[10] = target: Neu5Ac(a2-3)Gal(b1-4)GlcNAc(b1-6)[Neu5Ac(a2-3)Gal(b1-3)]GalNAc
How it was run: as §1

[11] = target: Neu5Ac(a2-3)Gal(b1-4)GlcNAc6S
How it was run: as §1

[12] = target: Neu5Ac(a2-3)Gal(b1-4)[Fuc(a1-3)]GlcNAc
How it was run: as §1

[13] = target: Neu5Ac(a2-3)Gal(b1-4)[Fuc(a1-3)]GlcNAc(b1-3)Gal
How it was run: as §1

[14] = target: Neu5Ac(a2-3)Gal(b1-4)[Fuc(a1-3)]GlcNAc(b1-3)Gal(b1-4)GlcNAc
How it was run: as §1

[15] = target: Neu5Ac(a2-3)Gal(b1-4)[Fuc(a1-3)]GlcNAc(b1-3)Gal(b1-4)[Fuc(a1-3)]GlcNAc(b1-3)Gal(b1-4)[Fuc(a1-3)]GlcNAc
How it was run: as §1

[16] = target: Neu5Ac(a2-3)Gal(b1-4)[Fuc(a1-3)]GlcNAc(b1-3)GalNAc
How it was run: as §1

[17] = target: Neu5Ac(a2-3)Gal(b1-4)[Fuc(a1-3)]GlcNAc(b1-6)[Gal(b1-3)]GalNAc
How it was run: as §1

[18] = target: Neu5Ac(a2-3)Gal(b1-4)[Fuc(a1-3)]GlcNAc(b1-6)[Neu5Ac(a2-3)Gal(b1-3)]GalNAc
How it was run: as §1

[19] = target: Neu5Ac(a2-3)Gal(b1-4)[Fuc(a1-3)]GlcNAc6S
How it was run: as §1

[20] = target: Neu5Ac(a2-3)Gal6S(b1-4)GlcNAc
How it was run: as §1

[21] = target: Neu5Ac(a2-3)Gal6S(b1-4)[Fuc(a1-3)]GlcNAc
How it was run: as §1

Neu5Ac(a2-3)GalNAc = target: Neu5Ac(a2-3)GalNAc
How it was run: as §1

[22] = target: Neu5Ac(a2-3)GalNAc(b1-4)GlcNAc
How it was run: as §1

[23] = target: Neu5Ac(a2-3)[GalNAc(b1-4)]Gal(b1-4)Glc
How it was run: as §1

[24] = target: Neu5Ac(a2-3)[GalNAc(b1-4)]Gal(b1-4)GlcNAc
How it was run: as §1

[25] = target: Neu5Ac(a2-3)[GalNAc(b1-4)]Gal(b1-4)GlcNAc(b1-3)GalNAc
How it was run: as §1

[26] = target: Neu5Ac(a2-3)[Neu5Ac(a2-6)]GalNAc
How it was run: as §1

Neu5Ac(a2-6)Gal = target: Neu5Ac(a2-6)Gal
How it was run: as §1

Neu5Ac(a2-6)Gal(b1-4)Glc = target: Neu5Ac(a2-6)Gal(b1-4)Glc
How it was run: as §1

[27] = target: Neu5Ac(a2-6)Gal(b1-4)GlcNAc
How it was run: as §1

[28] = target: Neu5Ac(a2-6)Gal(b1-4)GlcNAc(b1-2)Man(a1-3)Man(b1-4)GlcNAc(b1-4)GlcNAc
How it was run: as §1

[29] = target: Neu5Ac(a2-6)Gal(b1-4)GlcNAc(b1-2)Man(a1-3)[Gal(b1-4)GlcNAc(b1-2)Man(a1-6)]Man(b1-4)GlcNAc(b1-4)GlcNAc
How it was run: as §1

[30] = target: Neu5Ac(a2-6)Gal(b1-4)GlcNAc(b1-2)Man(a1-3)[GlcNAc(b1-2)Man(a1-6)]Man(b1-4)GlcNAc(b1-4)GlcNAc
How it was run: as §1

[31] = target: Neu5Ac(a2-6)Gal(b1-4)GlcNAc(b1-2)Man(a1-3)[GlcNAc(b1-2)Man(b1-4)GlcNAc(b1-2)Man(a1-6)]Man(b1-4)GlcNAc(b1-4)GlcNAc
How it was run: as §1

[32] = target: Neu5Ac(a2-6)Gal(b1-4)GlcNAc(b1-2)Man(a1-3)[Man(a1-6)]Man(b1-4)GlcNAc(b1-4)GlcNAc
How it was run: as §1

B1: Gal 3 (Homo sapiens), P17931 (protein)
chain: MADNFSLHDALSGSGNPNPQGWPGAWGNQPAGAGGYPGASYPGAYPGQAPPGAYPGQAPPGAYHGAPGAYPGAPAPGVYPGPPSGPGAYPSSGQPSAPGAYPATGPYGAPAGPLIVPYNLPLPGGVVPRMLITILGTVKPNANILDFQRGNDVAFHFNPRFNENNRRVIVCNTKLDNNWGREERQSVFPFESGKPFKIQVLVEPDHFKVAVNDAHLLQYNHRVKKLNEISKLGISGDIDLTSASYTMI
glycan array binding signal (z-score) [1]: -0.375 | glycan array binding signal (z-score) [2]: 1.19 | glycan array binding signal (z-score) [3]: -0.254 | glycan array binding signal (z-score) [4]: 0.01 | glycan array binding signal (z-score) [5]: 0.063 | glycan array binding signal (z-score) [6]: 3.82 | glycan array binding signal (z-score) [7]: -0.392 | glycan array binding signal (z-score) [8]: -0.386 | glycan array binding signal (z-score) [9]: -0.393 | glycan array binding signal (z-score) [10]: -0.385 | glycan array binding signal (z-score) [11]: -0.273 | glycan array binding signal (z-score) [12]: -0.39 | glycan array binding signal (z-score) [13]: -0.393 | glycan array binding signal (z-score) [14]: -0.385 | glycan array binding signal (z-score) [15]: -0.392 | glycan array binding signal (z-score) [16]: -0.364 | glycan array binding signal (z-score) [17]: -0.389 | glycan array binding signal (z-score) [18]: -0.374 | glycan array binding signal (z-score) [19]: -0.393 | glycan array binding signal (z-score) [20]: -0.387 | glycan array binding signal (z-score) [21]: -0.389 | glycan array binding signal (z-score) (Neu5Ac(a2-3)GalNAc): -0.392 | glycan array binding signal (z-score) [22]: -0.392 | glycan array binding signal (z-score) [23]: -0.391 | glycan array binding signal (z-score) [24]: -0.386 | glycan array binding signal (z-score) [25]: -0.384 | glycan array binding signal (z-score) [26]: -0.392 | glycan array binding signal (z-score) (Neu5Ac(a2-6)Gal): -0.393 | glycan array binding signal (z-score) (Neu5Ac(a2-6)Gal(b1-4)Glc): -0.388 | glycan array binding signal (z-score) [27]: -0.39 | glycan array binding signal (z-score) [28]: -0.392 | glycan array binding signal (z-score) [29]: -0.383 | glycan array binding signal (z-score) [30]: -0.39 | glycan array binding signal (z-score) [31]: -0.25 | glycan array binding signal (z-score) [32]: -0.39
